Data reported in publication PMC11790891.
No constants are given. Whether binding was seen depends on the method and setting. Some results given as binding are weak or reduced against the parent protein; the word gives no strength.

Chains of the proteins cited; added tags and fusions are not shown. Lines headed by an entry give the natural chain unless they say otherwise; changes in a name come on top.
UniProt Q14683: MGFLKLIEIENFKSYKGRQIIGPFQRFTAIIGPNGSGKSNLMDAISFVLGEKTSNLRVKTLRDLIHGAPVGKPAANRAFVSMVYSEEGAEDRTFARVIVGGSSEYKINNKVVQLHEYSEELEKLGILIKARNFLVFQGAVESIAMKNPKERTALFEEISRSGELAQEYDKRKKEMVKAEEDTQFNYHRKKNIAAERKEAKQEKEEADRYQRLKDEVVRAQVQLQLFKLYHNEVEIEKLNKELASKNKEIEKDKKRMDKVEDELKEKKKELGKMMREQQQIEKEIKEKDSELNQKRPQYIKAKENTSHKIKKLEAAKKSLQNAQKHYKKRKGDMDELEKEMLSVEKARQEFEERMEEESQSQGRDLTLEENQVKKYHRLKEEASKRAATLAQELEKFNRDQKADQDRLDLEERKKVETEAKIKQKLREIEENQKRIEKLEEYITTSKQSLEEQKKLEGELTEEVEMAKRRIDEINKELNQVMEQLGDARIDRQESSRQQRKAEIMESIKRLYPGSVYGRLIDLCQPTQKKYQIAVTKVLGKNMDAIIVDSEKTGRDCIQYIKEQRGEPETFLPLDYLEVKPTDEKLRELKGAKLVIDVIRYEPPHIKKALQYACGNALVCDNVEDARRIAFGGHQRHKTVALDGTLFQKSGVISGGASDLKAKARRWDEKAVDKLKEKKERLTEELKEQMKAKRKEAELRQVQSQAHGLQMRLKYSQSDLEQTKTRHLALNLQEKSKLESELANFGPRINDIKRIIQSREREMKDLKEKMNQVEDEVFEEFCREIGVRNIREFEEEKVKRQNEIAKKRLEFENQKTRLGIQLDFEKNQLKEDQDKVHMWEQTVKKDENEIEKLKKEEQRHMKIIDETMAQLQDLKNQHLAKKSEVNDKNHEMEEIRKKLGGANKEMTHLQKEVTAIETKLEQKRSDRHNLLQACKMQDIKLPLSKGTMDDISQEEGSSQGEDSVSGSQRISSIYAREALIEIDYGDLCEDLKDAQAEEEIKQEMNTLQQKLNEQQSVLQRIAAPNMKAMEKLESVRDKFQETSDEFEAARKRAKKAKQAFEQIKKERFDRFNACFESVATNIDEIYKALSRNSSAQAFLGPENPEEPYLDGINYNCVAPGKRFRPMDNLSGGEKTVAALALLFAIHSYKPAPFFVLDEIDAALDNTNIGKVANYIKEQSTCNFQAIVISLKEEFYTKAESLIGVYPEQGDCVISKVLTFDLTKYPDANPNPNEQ
UniProt Q9UQE7: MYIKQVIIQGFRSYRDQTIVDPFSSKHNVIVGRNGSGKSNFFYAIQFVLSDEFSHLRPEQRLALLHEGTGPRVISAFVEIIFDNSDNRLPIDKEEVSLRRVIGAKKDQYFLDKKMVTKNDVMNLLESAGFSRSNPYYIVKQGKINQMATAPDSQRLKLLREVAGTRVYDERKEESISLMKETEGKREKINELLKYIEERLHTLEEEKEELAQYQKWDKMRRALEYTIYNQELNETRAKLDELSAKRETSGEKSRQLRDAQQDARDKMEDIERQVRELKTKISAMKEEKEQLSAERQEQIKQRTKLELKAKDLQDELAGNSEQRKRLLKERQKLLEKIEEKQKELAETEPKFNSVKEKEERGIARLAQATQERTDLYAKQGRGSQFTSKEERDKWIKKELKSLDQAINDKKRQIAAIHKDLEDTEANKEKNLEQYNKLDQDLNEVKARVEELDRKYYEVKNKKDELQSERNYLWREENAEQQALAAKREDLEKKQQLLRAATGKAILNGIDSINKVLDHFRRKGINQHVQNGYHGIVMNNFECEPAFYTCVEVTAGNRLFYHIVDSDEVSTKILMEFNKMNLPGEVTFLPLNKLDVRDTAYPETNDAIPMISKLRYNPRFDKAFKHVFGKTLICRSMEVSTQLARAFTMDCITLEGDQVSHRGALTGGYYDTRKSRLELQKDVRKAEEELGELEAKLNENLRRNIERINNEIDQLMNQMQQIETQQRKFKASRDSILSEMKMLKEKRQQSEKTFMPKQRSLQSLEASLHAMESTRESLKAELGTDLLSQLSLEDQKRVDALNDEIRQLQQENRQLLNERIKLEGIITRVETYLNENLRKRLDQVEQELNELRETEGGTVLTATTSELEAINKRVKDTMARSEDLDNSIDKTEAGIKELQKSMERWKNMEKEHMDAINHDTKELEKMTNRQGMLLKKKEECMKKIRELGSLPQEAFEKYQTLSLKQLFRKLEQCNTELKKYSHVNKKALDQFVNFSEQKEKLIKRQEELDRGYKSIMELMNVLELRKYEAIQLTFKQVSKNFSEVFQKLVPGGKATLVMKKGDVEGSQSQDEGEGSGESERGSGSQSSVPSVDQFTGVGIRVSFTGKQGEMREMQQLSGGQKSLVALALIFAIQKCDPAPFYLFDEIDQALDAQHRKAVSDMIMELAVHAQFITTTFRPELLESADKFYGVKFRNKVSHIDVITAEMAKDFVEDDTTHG
UniProt O60216: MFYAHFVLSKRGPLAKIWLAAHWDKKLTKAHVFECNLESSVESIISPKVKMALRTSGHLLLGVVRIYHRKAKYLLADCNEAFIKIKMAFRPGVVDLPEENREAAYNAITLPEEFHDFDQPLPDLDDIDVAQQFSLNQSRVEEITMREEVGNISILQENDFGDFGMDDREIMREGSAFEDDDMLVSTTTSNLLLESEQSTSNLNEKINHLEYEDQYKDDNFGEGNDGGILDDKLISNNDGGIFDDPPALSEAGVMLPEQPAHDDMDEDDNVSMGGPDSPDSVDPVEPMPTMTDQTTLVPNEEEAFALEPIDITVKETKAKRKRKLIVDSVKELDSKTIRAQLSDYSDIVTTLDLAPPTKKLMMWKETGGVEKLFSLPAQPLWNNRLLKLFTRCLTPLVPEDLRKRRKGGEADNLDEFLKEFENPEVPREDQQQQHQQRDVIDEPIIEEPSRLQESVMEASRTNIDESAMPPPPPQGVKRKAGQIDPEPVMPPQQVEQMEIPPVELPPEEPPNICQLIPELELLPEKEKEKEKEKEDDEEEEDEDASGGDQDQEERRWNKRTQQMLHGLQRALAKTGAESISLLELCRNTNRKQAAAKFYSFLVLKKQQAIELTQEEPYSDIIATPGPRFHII
UniProt Q8N3U4: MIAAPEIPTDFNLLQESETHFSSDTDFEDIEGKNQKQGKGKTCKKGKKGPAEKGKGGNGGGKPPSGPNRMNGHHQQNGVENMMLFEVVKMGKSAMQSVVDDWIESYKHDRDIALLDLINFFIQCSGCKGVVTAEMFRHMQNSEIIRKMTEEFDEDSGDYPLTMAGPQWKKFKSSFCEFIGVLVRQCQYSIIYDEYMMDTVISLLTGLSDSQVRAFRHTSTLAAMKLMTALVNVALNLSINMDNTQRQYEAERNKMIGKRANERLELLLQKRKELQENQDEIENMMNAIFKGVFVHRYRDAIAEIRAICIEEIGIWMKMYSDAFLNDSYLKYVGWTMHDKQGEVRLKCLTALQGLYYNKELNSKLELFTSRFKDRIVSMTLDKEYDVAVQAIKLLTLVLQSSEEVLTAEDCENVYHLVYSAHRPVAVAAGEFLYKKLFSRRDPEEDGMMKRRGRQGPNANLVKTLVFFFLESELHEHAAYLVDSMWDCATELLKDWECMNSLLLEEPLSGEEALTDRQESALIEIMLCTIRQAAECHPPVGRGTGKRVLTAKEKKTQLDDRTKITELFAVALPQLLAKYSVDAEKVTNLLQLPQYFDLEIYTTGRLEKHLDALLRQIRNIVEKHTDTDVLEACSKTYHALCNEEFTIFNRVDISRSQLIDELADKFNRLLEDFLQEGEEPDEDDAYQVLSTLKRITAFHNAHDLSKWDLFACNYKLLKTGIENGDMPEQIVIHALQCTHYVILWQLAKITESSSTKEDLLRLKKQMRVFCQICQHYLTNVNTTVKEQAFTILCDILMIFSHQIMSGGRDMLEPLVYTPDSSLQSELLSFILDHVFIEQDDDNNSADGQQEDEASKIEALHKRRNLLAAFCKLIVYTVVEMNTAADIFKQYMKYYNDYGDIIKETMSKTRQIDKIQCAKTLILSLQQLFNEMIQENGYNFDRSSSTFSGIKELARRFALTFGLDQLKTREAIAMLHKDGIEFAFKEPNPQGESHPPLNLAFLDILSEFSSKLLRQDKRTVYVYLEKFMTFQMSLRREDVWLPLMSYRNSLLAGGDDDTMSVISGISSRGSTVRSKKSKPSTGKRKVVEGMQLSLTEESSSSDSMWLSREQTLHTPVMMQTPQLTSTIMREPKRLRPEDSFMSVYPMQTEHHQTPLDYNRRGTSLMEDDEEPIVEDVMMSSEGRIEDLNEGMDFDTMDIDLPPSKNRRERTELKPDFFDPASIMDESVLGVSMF
UniProt O75151: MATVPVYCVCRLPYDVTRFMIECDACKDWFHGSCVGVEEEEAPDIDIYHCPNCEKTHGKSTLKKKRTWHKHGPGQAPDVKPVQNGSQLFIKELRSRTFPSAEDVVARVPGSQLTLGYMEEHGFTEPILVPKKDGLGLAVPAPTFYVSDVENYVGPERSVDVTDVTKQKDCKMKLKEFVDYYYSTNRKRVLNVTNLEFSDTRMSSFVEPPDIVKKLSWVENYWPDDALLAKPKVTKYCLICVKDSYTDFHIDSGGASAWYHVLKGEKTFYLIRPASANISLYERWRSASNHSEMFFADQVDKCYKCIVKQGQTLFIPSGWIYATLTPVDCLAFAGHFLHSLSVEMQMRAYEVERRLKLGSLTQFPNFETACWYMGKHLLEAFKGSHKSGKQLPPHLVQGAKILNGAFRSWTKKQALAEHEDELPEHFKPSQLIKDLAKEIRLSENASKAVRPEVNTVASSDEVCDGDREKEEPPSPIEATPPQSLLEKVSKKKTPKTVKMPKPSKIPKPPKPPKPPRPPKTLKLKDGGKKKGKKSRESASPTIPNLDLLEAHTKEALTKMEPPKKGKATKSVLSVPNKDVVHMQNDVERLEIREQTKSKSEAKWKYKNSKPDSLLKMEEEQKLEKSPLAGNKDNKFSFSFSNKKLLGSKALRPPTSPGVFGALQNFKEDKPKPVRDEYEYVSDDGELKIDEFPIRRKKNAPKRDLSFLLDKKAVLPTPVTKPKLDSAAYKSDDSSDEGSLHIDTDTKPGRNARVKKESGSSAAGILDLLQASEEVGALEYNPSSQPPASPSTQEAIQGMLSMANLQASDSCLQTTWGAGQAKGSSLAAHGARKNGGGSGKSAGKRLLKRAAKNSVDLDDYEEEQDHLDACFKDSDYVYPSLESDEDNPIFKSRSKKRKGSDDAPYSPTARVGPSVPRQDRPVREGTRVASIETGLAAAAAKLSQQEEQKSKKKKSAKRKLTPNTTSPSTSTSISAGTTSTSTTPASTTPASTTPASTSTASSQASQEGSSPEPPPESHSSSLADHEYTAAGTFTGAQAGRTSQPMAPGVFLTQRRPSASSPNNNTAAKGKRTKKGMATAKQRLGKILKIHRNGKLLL

Legend:
Assay in all cases: pull-down; in vitro binding assay: cohesin complexes held on FLAG beads mixed with purified Phf2 at 4 °C for 1 h in 35 mM Hepes pH 7.5, 100 mM NaCl, 5% glycerol, 0.01% Tween; three washes; eluted with FLAG peptide; silver staining or Western blot; both purified
[1] = molecular target: human recombinant cohesin trimer composed of SMC1, SMC3 and SCC1 (human) (UniProt Q14683+Q9UQE7+O60216)
[2] = molecular target: human recombinant cohesin SMC1-SMC3 dimer (human) (UniProt Q14683+Q9UQE7)
[3] = molecular target: human recombinant cohesin tetramer with STAG1 (SMC1, SMC3, SCC1, STAG1) (human) (UniProt Q14683+Q9UQE7+O60216+Q8WVM7)
[4] = molecular target: human recombinant cohesin tetramer with STAG2 (SMC1, SMC3, SCC1, STAG2) (human) (UniProt Q14683+Q9UQE7+O60216+Q8N3U4)

With “His-tagged full-length Phf2 (from UniProt O75151 1-1096)” the binding [1] was “binds”, the binding [2] was “no binding” and the binding [3] was “binds”. For the same substance, the binding [4] was “binds”.
